Measured values taken from patent US20250051434A1 (Merck Sharp & Dohme, published 2025).

Legend:
Assay in all cases: cell-based or functional assay
[1] = target: T1, human IL-12 receptor (IL-12R) (human, UniProt P42701 24-662; Q99665 24-862)
[2] = target: T1, human IL-12 receptor (IL-12R); remark: listed apart in the source
[3] = target: rhesus monkey IL-12 receptor (rhesus monkey)

T1 sequence (Q99665 24-862, chain 2 of 2, other chains not shown): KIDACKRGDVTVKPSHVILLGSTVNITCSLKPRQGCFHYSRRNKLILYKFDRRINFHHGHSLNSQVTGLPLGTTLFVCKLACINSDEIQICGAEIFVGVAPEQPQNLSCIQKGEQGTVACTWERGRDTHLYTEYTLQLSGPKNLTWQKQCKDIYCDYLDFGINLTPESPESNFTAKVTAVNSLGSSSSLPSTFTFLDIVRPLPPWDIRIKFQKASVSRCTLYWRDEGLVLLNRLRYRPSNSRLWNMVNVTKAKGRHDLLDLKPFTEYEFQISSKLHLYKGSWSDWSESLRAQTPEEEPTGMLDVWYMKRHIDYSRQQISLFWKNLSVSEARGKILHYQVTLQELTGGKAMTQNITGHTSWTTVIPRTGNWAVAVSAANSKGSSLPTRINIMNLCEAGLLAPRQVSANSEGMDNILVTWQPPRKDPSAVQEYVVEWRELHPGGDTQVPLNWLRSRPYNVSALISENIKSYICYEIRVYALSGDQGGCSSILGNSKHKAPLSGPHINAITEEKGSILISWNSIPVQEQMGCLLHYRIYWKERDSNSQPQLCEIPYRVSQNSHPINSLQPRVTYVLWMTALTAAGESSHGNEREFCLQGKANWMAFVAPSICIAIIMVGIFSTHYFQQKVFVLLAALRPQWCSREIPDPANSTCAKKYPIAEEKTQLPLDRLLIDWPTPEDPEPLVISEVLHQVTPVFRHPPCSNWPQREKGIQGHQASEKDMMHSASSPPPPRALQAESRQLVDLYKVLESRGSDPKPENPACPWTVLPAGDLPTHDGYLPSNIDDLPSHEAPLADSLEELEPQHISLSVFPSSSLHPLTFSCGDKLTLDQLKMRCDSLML

Row | Binder | Mean Fold Reduction (potency vs IL-12 WT by EC50; HEK-Blue IL-12 STAT4/SEAP reporter) [1] | HEK Reporter Median EC50 values (ng/mL) (n = 3) [2] | Human PBMC Median EC50 values (ng/ml); IFNγ release from activated human PBMC in vitro (n = 8) [2] | Rhesus PBMC Median EC50 values (ng/ml); IFNγ release from activated rhesus PBMC in vitro (n = 10) [3]
1 | IL-12-Fc-41 (Fc fusion) chain 1: TPDPGMFPCLHHSQNLLRAVSNMLQKARQTLEFYPCTSEEIDHEDITKDKTSTVEACLPLELTKNESCLNSRETSFITNGSCLASRKTSFMMALCLSSIYEDLKMYQVEFKTMNAKLLMDPKRQIFLDQNMLAVIDELMQALNFNSETVPQKSSLEEPDFTKTKIKLCILLHAFRIRAVTIDRVMSYLNASGGGGSGGGGSGGGGS[skipping human IgG1 Fc with L234A L235A D265S S354C T366W (EU numbers)] chain 2: IWELKKDVYVVELDWYPDAPGEMVVLTCDTPEEDGITWTLDQSSEVLGSGKTLTIQVKEFGDAGQYTCHKGGEVLSHSLLLLHKKELGIWSTDILKDQKEPKNKTFLRCEAKNYSGRFTCWWLTTISTDLTFSVKSSRGSSDPQGVTCGAATLSAERVRGDNKEYEYSVECQEDSACPAAEESLPIEVMVDAVHKLKYENYTSSFFIRDIIKPDPPKNLQLKPLKNSRQVEVSWEYPDTWSTPHSYFSLTFCVQVQGKSKREKKDRVFTDKTSATVICRKNASISVRAQDRYYSSSWSEWASVPCSGGGGDKTHTCPPCPAPEAAGGPSVFLFPPKPKDTLMISRTPEVTCVVVSVSHEDPEVKFNWYVDGVEVHNAKTKPREEQYNSTYRVVSVLTVLHQDWLNGKEYKCKVSNKALPAPIEKTISKAKGQPREPQVCTLPPSRDELTKNQVSLSCAVKGFYPSDIAVEWESNGQPENNYKTTPPVLDSDGSFFLVSKLTVDKSRWQQGNVFSCSVMHEALHNHYTQKSLSLSPGK | 80 fold | 3640 ng/mL | 2850 ng/mL | –
2 | IL-12-Fc-52 (Fc fusion) chain 1: TPDPGMFPCLHHSQNLLRAVSNMLQKARQTLEFYPCTSEEIDHEDITKDKTSTVEACLPLELTKNESCLNSRETSFITNGSCLASRKTSFMMALCLSSIYEDLKMYQVEFKTMNAKLLMDPKRQIFLDQNMLAVIDELMQALNFNSETVPQKSSLEEPKFYKTKIKLCILLHAFRIRAVTIDRVMSYLNASGGGGSGGGGSGGGGS[skipping human IgG1 Fc with L234A L235A D265S S354C T366W (EU numbers)] chain 2: IWELKKDVYVVELDWYPDAPGEMVVLTCDTPEEDGITWTLDQSSEVLGSGKTLTIQVKEFGDAGQYTCHKGGEVLSHSLLLLHKKEDGIWSTDILKDQKEPKNDTFLRCEAKNYSGRFTCWWLTTISTDLTFSVKSSRGSSDPQGVTCGAATLSAERVRGDNKEYEYSVECQEDSACPAAEESLPIEVMVDAVHKLKYENYTSSFFIRDIIKPDPPKNLQLKPLKNSRQVEVSWEYPDTWSTPHSYFSLTFCVQVQGKSKREKKDRVFTDKTSATVICRKNASISVRAQDRYYSSSWSEWASVPCSGGGGDKTHTCPPCPAPEAAGGPSVFLFPPKPKDTLMISRTPEVTCVVVSVSHEDPEVKFNWYVDGVEVHNAKTKPREEQYNSTYRVVSVLTVLHQDWLNGKEYKCKVSNKALPAPIEKTISKAKGQPREPQVCTLPPSRDELTKNQVSLSCAVKGFYPSDIAVEWESNGQPENNYKTTPPVLDSDGSFFLVSKLTVDKSRWQQGNVFSCSVMHEALHNHYTQKSLSLSPGK | 2 fold | – | – | –
3 | IL-12-Fc-54 (Fc fusion) chain 1: TPDPGMFPCLHHSQNLLRAVSNMLQKARQTLEFYPCTSEEIDHEDITKDKTSTVEACLPLELTKNESCLNSRETSFITNGSCLASRKTSFMMALCLSSIYEDLKMYQVEFKTMNAKLLMDPKRQIFLDQNMLAVIDELMQALNFNSETVPQKSSLEEPDFSKTKIKLCILLHAFRIRAVTIDRVMSYLNASGGGGSGGGGSGGGGS[skipping human IgG1 Fc with L234A L235A D265S S354C T366W (EU numbers)] chain 2: IWELKKDVYVVELDWYPDAPGEMVVLTCDTPEEDGITWTLDQSSEVLGSGKTLTIQVKEFGDAGQYTCHKGGEVLSHSLLLLHKKEDGIWSTDILKDQKEPKNDTFLRCEAKNYSGRFTCWWLTTISTDLTFSVKSSRGSSDPQGVTCGAATLSAERVRGDNKEYEYSVECQEDSACPAAEESLPIEVMVDAVHKLKYENYTSSFFIRDIIKPDPPKNLQLKPLKNSRQVEVSWEYPDTWSTPHSYFSLTFCVQVQGKSKREKKDRVFTDKTSATVICRKNASISVRAQDRYYSSSWSEWASVPCSGGGGDKTHTCPPCPAPEAAGGPSVFLFPPKPKDTLMISRTPEVTCVVVSVSHEDPEVKFNWYVDGVEVHNAKTKPREEQYNSTYRVVSVLTVLHQDWLNGKEYKCKVSNKALPAPIEKTISKAKGQPREPQVCTLPPSRDELTKNQVSLSCAVKGFYPSDIAVEWESNGQPENNYKTTPPVLDSDGSFFLVSKLTVDKSRWQQGNVFSCSVMHEALHNHYTQKSLSLSPGK | 195 fold | – | – | –
4 | IL-12-Fc-53 (Fc fusion) chain 1: TPDPGMFPCLHHSQNLLRAVSNMLQKARQTLEFYPCTSEEIDHEDITKDKTSTVEACLPLELTKNESCLNSRETSFITNGSCLASRKTSFMMALCLSSIYEDLKMYQVEFKTMNAKLLMDPKRQIFLDQNMLAVIDELMQALNFNSETVPQKSSLEEPRFYKTKIKLCILLHAFRIRAVTIDRVMSYLNASGGGGSGGGGSGGGGS[skipping human IgG1 Fc with L234A L235A D265S S354C T366W (EU numbers)] chain 2: IWELKKDVYVVELDWYPDAPGEMVVLTCDTPEEDGITWTLDQSSEVLGSGKTLTIQVKEFGDAGQYTCHKGGEVLSHSLLLLHKKEDGIWSTDILKDQKEPKNDTFLRCEAKNYSGRFTCWWLTTISTDLTFSVKSSRGSSDPQGVTCGAATLSAERVRGDNKEYEYSVECQEDSACPAAEESLPIEVMVDAVHKLKYENYTSSFFIRDIIKPDPPKNLQLKPLKNSRQVEVSWEYPDTWSTPHSYFSLTFCVQVQGKSKREKKDRVFTDKTSATVICRKNASISVRAQDRYYSSSWSEWASVPCSGGGGDKTHTCPPCPAPEAAGGPSVFLFPPKPKDTLMISRTPEVTCVVVSVSHEDPEVKFNWYVDGVEVHNAKTKPREEQYNSTYRVVSVLTVLHQDWLNGKEYKCKVSNKALPAPIEKTISKAKGQPREPQVCTLPPSRDELTKNQVSLSCAVKGFYPSDIAVEWESNGQPENNYKTTPPVLDSDGSFFLVSKLTVDKSRWQQGNVFSCSVMHEALHNHYTQKSLSLSPGK | 2 fold | – | – | –

More lines, now with the values ahead:

Row | Mean Fold Reduction (potency vs IL-12 WT by EC50; HEK-Blue IL-12 STAT4/SEAP reporter) [1] | HEK Reporter Median EC50 values (ng/mL) (n = 3) [2] | Human PBMC Median EC50 values (ng/ml); IFNγ release from activated human PBMC in vitro (n = 8) [2] | Rhesus PBMC Median EC50 values (ng/ml); IFNγ release from activated rhesus PBMC in vitro (n = 10) [3] | Binder
5 | 32 fold | – | – | – | IL-12-Fc-56 (Fc fusion) chain 1: TPDPGMFPCLHHSQNLLRAVSNMLQKARQTLEFYPCTSEEIDHEDITKDKTSTVEACLPLELTKNESCLNSRETSFITNGSCLASRKTSFMMALCLSSIYEDLKMYQVEFKTMNAKLLMDPKRQIFLDQNMLAVIDELMQALNFNSETVPQKSSLEEPDFAKTKIKLCILLHAFRIRAVTIDRVMSYLNASGGGGSGGGGSGGGGS[skipping human IgG1 Fc with L234A L235A D265S S354C T366W (EU numbers)] chain 2: IWELKKDVYVVELDWYPDAPGEMVVLTCDTPEEDGITWTLDQSSEVLGSGKTLTIQVKEFGDAGQYTCHKGGEVLSHSLLLLHKKEDGIWSTDILKDQKEPKNDTFLRCEAKNYSGRFTCWWLTTISTDLTFSVKSSRGSSDPQGVTCGAATLSAERVRGDNKEYEYSVECQEDSACPAAEESLPIEVMVDAVHKLKYENYTSSFFIRDIIKPDPPKNLQLKPLKNSRQVEVSWEYPDTWSTPHSYFSLTFCVQVQGKSKREKKDRVFTDKTSATVICRKNASISVRAQDRYYSSSWSEWASVPCSGGGGDKTHTCPPCPAPEAAGGPSVFLFPPKPKDTLMISRTPEVTCVVVSVSHEDPEVKFNWYVDGVEVHNAKTKPREEQYNSTYRVVSVLTVLHQDWLNGKEYKCKVSNKALPAPIEKTISKAKGQPREPQVCTLPPSRDELTKNQVSLSCAVKGFYPSDIAVEWESNGQPENNYKTTPPVLDSDGSFFLVSKLTVDKSRWQQGNVFSCSVMHEALHNHYTQKSLSLSPGK
6 | – | 1.4 ng/mL | 1.4 ng/mL | 0.3 ng/mL | IL-12-Fc-wt2 (Fc fusion) chain 1: TPDPGMFPCLHHSQNLLRAVSNMLQKARQTLEFYPCTSEEIDHEDITKDKTSTVEACLPLELTKNESCLNSRETSFITNGSCLASRKTSFMMALCLSSIYEDLKMYQVEFKTMNAKLLMDPKRQIFLDQNMLAVIDELMQALNFNSETVPQKSSLEEPDFYKTKIKLCILLHAFRIRAVTIDRVMSYLNASGGGGSGGGGSGGGGS[skipping human IgG1 Fc with L234A L235A D265S S354C T366W (EU numbers)] chain 2: IWELKKDVYVVELDWYPDAPGEMVVLTCDTPEEDGITWTLDQSSEVLGSGKTLTIQVKEFGDAGQYTCHKGGEVLSHSLLLLHKKEDGIWSTDILKDQKEPKNKTFLRCEAKNYSGRFTCWWLTTISTDLTFSVKSSRGSSDPQGVTCGAATLSAERVRGDNKEYEYSVECQEDSACPAAEESLPIEVMVDAVHKLKYENYTSSFFIRDIIKPDPPKNLQLKPLKNSRQVEVSWEYPDTWSTPHSYFSLTFCVQVQGKSKREKKDRVFTDKTSATVICRKNASISVRAQDRYYSSSWSEWASVPCSGGGGDKTHTCPPCPAPEAAGGPSVFLFPPKPKDTLMISRTPEVTCVVVSVSHEDPEVKFNWYVDGVEVHNAKTKPREEQYNSTYRVVSVLTVLHQDWLNGKEYKCKVSNKALPAPIEKTISKAKGQPREPQVCTLPPSRDELTKNQVSLSCAVKGFYPSDIAVEWESNGQPENNYKTTPPVLDSDGSFFLVSKLTVDKSRWQQGNVFSCSVMHEALHNHYTQKSLSLSPGK
7 | – | 11700 ng/mL | – | – | IL-12-Fc-60 (Fc fusion) chain 1: TPDPGMFPCLHHSQNLLRAVSNMLQKARQTLEFYPCTSEEIDHEDITKDKTSTVEACLPLELTKNESCLNSRETSFITNGSCLASRKTSFMMALCLSSIYEDLKMYQVEFKTMNAKLLMDPKRQIFLDQNMLAVIDELMQALNFNSETVPQKSSLEEPKFTKTKIKLCILLHAFRIRAVTIDRVMSYLNASGGGGSGGGGSGGGGS[skipping human IgG1 Fc with L234A L235A D265S S354C T366W (EU numbers)] chain 2: IWELKKDVYVVELDWYPDAPGEMVVLTCDTPEEDGITWTLDQSSEVLGSGKTLTIQVKEFGDAGQYTCHKGGEVLSHSLLLLHKKELGIWSTDILKDQKEPKNDTFLRCEAKNYSGRFTCWWLTTISTDLTFSVKSSRGSSDPQGVTCGAATLSAERVRGDNKEYEYSVECQEDSACPAAEESLPIEVMVDAVHKLKYENYTSSFFIRDIIKPDPPKNLQLKPLKNSRQVEVSWEYPDTWSTPHSYFSLTFCVQVQGKSKREKKDRVFTDKTSATVICRKNASISVRAQDRYYSSSWSEWASVPCSGGGGDKTHTCPPCPAPEAAGGPSVFLFPPKPKDTLMISRTPEVTCVVVSVSHEDPEVKFNWYVDGVEVHNAKTKPREEQYNSTYRVVSVLTVLHQDWLNGKEYKCKVSNKALPAPIEKTISKAKGQPREPQVCTLPPSRDELTKNQVSLSCAVKGFYPSDIAVEWESNGQPENNYKTTPPVLDSDGSFFLVSKLTVDKSRWQQGNVFSCSVMHEALHNHYTQKSLSLSPGK
